Measured values: PubChem BioAssay AID624202 (National Center for Advancing Translational Sciences (NCATS), 2012)
Out of some 380,000 compounds screened, about 4,000 (1.1%) were called active. Inconclusive results, whose numbers are uncertain, are shown with a selection of clear calls. Calls follow the shape of the dose curve; as a rule, active = well fitted activation curve with a large enough effect; inconclusive = small, poorly fitted or top-dose-only effect; inactive = no such curve, though single readings can be large or run the other way. Potencies beside an inconclusive call are fits to weak or partial responses and may not hold up.

Experiment: qHTS Assay to Identify Small Molecule Activators of BRCA1 Expression; also: nearly all actives have a fitted effect of over 80% in size
Settings: MCF7-BRCA1-FFLuc reporter, luminescence, 48 h; activation: at 46.1 µM (top of the series), scaled: vehicle 0%, 10 µM genistein 100% unless noted
Outline: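 Activators of BRCA1 expression were detected as increased firefly luciferase luminescence in engineered MCF7 cells after 48 h compound incubation. Signals were scaled to genistein 10 microM as full activation.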
Potency is read from the fitted curve at half-maximal effect; tags tell the direction and shape of the fitted curve.

Compound	Potency	activation
Fc1ccc(Cc2cn3cc(-c4ccc(Cl)cc4)nc3s2)cc1	active: 0.891 µM	–
COc1ccc(NC(=O)C2CCCN(S(=O)(=O)c3cccs3)C2)cc1 (centres undefined)	inactive	–
Cc1cc(C)c(NC(=O)CCCN2CCCC2)c(C)c1	inactive	–
O=C(NNC(=O)c1ccncc1)Nc1ccc(N=Nc2ccccc2)cc1	inconclusive: 12.6 µM [activator, partial curve, poor fit]	–
CCc1ccc(NC(=O)c2ccccc2Br)cc1	active: 3.16 µM	–
CCC(=O)Nc1cccc(-c2cc3ccccc3oc2=O)c1	active: 10 µM	–
Clc1ccccc1CN1CCN(/N=C/C=C\c2ccco2)CC1	inconclusive: 10 µM [activator, partial curve, poor fit]	–
CC(C)OC(=O)C1=C2SCC(=O)N2C(N)=C(C#N)C1	inactive	–
Cc1ccc(Cn2ccc(-c3cnc(-c4ccccc4)s3)n2)cc1	inactive	–
COc1ccc(N/C(C)=C/C(=O)c2ccccc2)cc1	inconclusive: 11.2 µM [activator, partial curve, poor fit]	–
O=C(NCCN1CCC(n2c(=O)[nH]c3ccccc32)CC1)c1c(F)cccc1F	inactive	–
CC(=NC1CC1)C1=C(O)c2ccccc2C1=O	inconclusive: 2.82 µM [activator, full curve, poor fit]	–
O=C(Nc1ncc([N+](=O)[O-])s1)C1CC(=O)N(c2ccc(F)cc2)C1 (centres undefined)	inactive	–
CC1CCCCC1NC(=S)NC(=O)c1sc2ccccc2c1Cl (centres undefined)	inactive	–
Cc1ccc(-c2noc(-c3ccccc3F)n2)cc1	inconclusive: 1.26 µM [activator, full curve, poor fit]	–
CSc1ccc(COC(=O)c2cc([N+](=O)[O-])ccc2N2CCOCC2)cc1	–	inconclusive: -83.3% [activator]
Cc1noc(-c2ccc(N3CCC(C)CC3)c([N+](=O)[O-])c2)n1	inconclusive: 6.31 µM [activator, partial curve, poor fit]	–
CC1CCc2c(C(=O)NCc3ccccn3)csc2C1 (centres undefined)	active: 11.2 µM	–
O=C(CNC(=O)c1ccccc1F)N/N=C/c1cccs1	active: 10 µM	–
COc1ccc(-c2cc3ncc(C(C)=O)c(C)n3n2)cc1	inconclusive: 20 µM [activator, partial curve, poor fit]	–
O=C1C=CC(=Nc2ccc3c(c2)Cc2ccccc2-3)O1	inconclusive: 14.1 µM [activator, partial curve, poor fit]	–
COc1ccc(NC(=O)Nc2ccc3oc(C)nc3c2)cc1	active: 2.82 µM	–
Cc1cc(C)c2nc(N3CCN(C(=O)c4ccco4)CC3)sc2c1	active: 12.6 µM	–
CC(=O)Nc1ccc(NC(=O)CSc2ccc(-c3ccc4c(c3)OCO4)nn2)cc1	inactive	–
C/C(=N/NC(=O)c1ccc2c(c1)OCO2)c1ccc(NC(=O)c2ccc(F)cc2)cc1	inconclusive: 20 µM [activator, partial curve, poor fit]	–

Compound	Potency	activation
COc1ccc(NC(=O)c2nc[nH]c2C(=O)N2CCN(c3ccccc3)CC2)cc1	inactive	–
COc1ccc2oc(=O)c(-c3nc(C)cs3)cc2c1	inconclusive: 3.16 µM [activator, partial curve, poor fit]	–
Cc1c(NC(=O)c2ccc(C(C)(C)C)cc2)cccc1[N+](=O)[O-]	active: 7.94 µM	–
Nc1c(C(=O)C2CC2)sc2nc3c(cc12)CCC3	inconclusive: 6.31 µM [activator, partial curve, poor fit]	–
CCn1cnc2sc(C(=O)Oc3ccc(Br)cc3)c(C)c2c1=O	inconclusive: 35.5 µM [activator, single point]	–
O=C(NC(=S)Nc1ccc(F)cc1)C1CCCCC1	inconclusive: 10 µM [activator, partial curve, poor fit]	–
CCC(C)NC(=O)c1cn(-c2cccc(C)n2)cn1 (centres undefined)	inconclusive: 20 µM [activator, partial curve, poor fit]	–
Cc1ccc2[nH]c(=O)c(CN(CCCO)Cc3nnnn3Cc3ccccc3)cc2c1	inactive	–
CCOc1ccc(C(C)=O)cc1N1C(=O)C2C3C=CC(C3)C2C1=O (centres undefined)	inactive	–
O=C(COc1ccccc1)NCCSc1ccccc1	inconclusive: 11.2 µM [activator, partial curve, poor fit]	–
Cc1ccc(-c2nnc(-c3cccs3)o2)cc1	inconclusive: 2 µM [activator, partial curve, poor fit]	–
COc1ccc(/C=C2\CCC(C3CCCC3)C2=O)c(OC)c1 (centres undefined)	inconclusive: 15.8 µM [activator, single point]	–
O=C(C=Cc1cccs1)c1cccs1	inactive	–
Cc1ccc(NC(=O)CN2CCCC2c2cccn2C)c(Br)c1 (centres undefined)	inconclusive: 11.2 µM [activator, partial curve, poor fit]	–
CCOC(=O)c1ccc2[nH]c3c(c2c1)CCCC3NC=O (centres undefined)	inconclusive: 31.6 µM [activator, single point]	–
O=C(COc1ccc(F)cc1Br)N1CCc2ccccc21	inconclusive: 1.78 µM [activator, full curve, poor fit]	–
O=C(Nc1ccccc1)c1cnc[nH]1	inactive	–
CCn1nnc(NC(=O)c2sc3ccccc3c2Cl)n1	inconclusive: 2.51 µM [activator, full curve, poor fit]	–
Cc1ccc(C(C(=O)NC2CCCC2)N(Cc2cccnc2)C(=O)c2snc(C(N)=O)c2N)o1 (centres undefined)	inactive	–
Cc1cc(/C=C2/C(=O)N(C)C(=S)N2C)ccc1N1CCCC1	inactive	–
Cc1ccnc(NC(=O)c2cc3ccccc3oc2=O)c1	inconclusive: 35.5 µM [activator, single point]	–
CCOc1ccc(NC(=O)Nc2nnc(CC)s2)cc1	inconclusive: 12.6 µM [activator, partial curve, poor fit]	–
Cc1ccc(NC(=O)Cn2ncc3ccccc32)c(Cl)c1	inconclusive: 17.8 µM [activator, single point]	–
Cc1ccc(NC(=O)c2cn(-c3cccc(C)n3)cn2)cc1	inconclusive: 2.24 µM [activator, full curve, poor fit]	–
